As a reminder, the inhibition is the change of the read-out against control, counted positive when it falls. As usually defined, the half-life is the time needed for the level to fall by half in the phase considered.

The target in one data set is T1, OATP1B3 (Homo sapiens, UniProt Q9NPD5).
T1 sequence (Q9NPD5 1-702): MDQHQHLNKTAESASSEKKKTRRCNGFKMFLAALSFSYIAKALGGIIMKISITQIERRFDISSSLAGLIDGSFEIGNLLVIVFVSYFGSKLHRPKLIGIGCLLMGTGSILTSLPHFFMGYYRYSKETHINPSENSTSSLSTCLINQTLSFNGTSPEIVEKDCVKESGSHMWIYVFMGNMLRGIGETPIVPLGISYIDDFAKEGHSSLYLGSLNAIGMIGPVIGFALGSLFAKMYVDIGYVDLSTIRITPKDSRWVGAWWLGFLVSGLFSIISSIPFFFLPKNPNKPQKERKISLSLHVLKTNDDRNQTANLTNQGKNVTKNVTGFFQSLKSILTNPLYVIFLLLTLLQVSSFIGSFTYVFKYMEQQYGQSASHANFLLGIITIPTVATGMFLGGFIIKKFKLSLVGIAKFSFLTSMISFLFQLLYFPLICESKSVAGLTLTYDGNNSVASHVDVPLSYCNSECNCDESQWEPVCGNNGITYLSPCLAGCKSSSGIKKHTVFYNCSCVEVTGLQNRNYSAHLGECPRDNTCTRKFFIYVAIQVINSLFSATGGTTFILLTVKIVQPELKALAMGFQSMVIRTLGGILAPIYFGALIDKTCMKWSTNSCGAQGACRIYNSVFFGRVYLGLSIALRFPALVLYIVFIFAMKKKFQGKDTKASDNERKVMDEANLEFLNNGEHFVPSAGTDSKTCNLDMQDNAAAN
The experiment in a line: Uptake transporter inhibition assay, OATP1B3 (CCK-8). The procedure: (§1) Uptake experiments were performed using HEK293 cells stably expressing the respective uptake transporters. The assays were conducted according to the actual SOLVO uptake transporter assay protocols (PR-ASY-UPT-General Protocol for Uptake Transporter Inhibition Assays).
(§2) Cells were cultured at 37° C. in a humidified atmosphere containing 5% CO2 and were plated onto standard 96-well tissue culture plates.
(§3) Before the experiment, the medium was removed, and the cells were washed twice with 100 μL of pre-warmed (37° C.) assay buffer listed in Table 15. The cells were pre-incubated at 37° C. for 30 minutes in assay buffer containing the test article at appropriate concentrations (Table 16), appropriate solvents for solvent controls and the reference inhibitor for reference inhibitor wells. After the pre-incubation step solutions were removed. Uptake experiments were performed at 37° C. in 50 μL of assay buffer containing the probe substrate and the test article or solvent and controls.
(§4) After the experiment, cells were washed twice with 100 μL of appropriate cold buffer and lysed with 150 μL scintillation cocktail. Radiolabeled probe substrate transport was determined by liquid scintillation counting.
(§5) Uptake of the probe substrate in control cells provided background activity values for all data points.

The target in a further data set is T2, OATP1B1 (Homo sapiens, UniProt Q9Y6L6).
T2 sequence (Q9Y6L6 1-691): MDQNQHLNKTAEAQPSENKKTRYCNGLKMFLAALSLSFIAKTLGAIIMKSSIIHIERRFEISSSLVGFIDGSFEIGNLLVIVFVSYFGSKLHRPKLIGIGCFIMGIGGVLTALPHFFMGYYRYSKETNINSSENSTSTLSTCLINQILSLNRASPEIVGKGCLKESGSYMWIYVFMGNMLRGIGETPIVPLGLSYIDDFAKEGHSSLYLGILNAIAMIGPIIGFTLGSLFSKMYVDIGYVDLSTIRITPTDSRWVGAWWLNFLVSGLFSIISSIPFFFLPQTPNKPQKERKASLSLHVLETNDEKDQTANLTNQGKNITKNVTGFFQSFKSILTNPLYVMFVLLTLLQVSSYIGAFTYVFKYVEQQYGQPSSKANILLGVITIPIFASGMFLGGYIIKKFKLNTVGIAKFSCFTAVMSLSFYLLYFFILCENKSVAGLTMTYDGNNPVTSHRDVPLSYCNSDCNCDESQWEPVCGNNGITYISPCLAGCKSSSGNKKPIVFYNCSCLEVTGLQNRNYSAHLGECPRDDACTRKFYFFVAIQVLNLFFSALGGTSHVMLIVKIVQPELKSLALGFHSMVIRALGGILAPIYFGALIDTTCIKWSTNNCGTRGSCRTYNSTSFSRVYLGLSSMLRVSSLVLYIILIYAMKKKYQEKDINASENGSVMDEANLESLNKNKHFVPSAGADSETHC
The experiment in a line: Uptake transporter inhibition assay, OATP1B1 (estradiol-17-β-glucuronide). The procedure:
as §1, §2, §3, §4, §5

Data set [1] can be described thus: Metabolic stability in human intestinal homogenate. It counts as in vitro ADME. The note with it: 0.5 mg/mL homogenate, 1 mM NADPH. How it is done:
The intestinal homogenate mixture solution was added to 96-well plates ([…]) in duplicate. […] Reaction was initiated by adding cofactor solution at 10 μL/well.
The intrinsic clearances were calculated using the following equations: […]

In the next data set the target is MDR1 (Homo sapiens, UniProt P08183). The experiment in a line: Vesicular transport inhibition assay, MDR1 (N-methyl quinidine). More on the design: dose or concentration left out as unconfirmed. The note with it: […] μM nominal, reference inhibitor. The procedure: Vesicular transport assays were performed with inside-out membrane vesicles prepared from cells overexpressing human ABC (efflux) transporters. The transporters were expressed by SOLVO Biotechnology in mammalian (HEK293) cells. The mammalian cells were stably transfected with the ABC transporter of interest. The assays were conducted according to the actual SOLVO VT assay protocols (PR-ASY-VT-General Protocol for Vesicular Transport Inhibition Assays).
UniProt P08183, sequence (P08183 whole entry): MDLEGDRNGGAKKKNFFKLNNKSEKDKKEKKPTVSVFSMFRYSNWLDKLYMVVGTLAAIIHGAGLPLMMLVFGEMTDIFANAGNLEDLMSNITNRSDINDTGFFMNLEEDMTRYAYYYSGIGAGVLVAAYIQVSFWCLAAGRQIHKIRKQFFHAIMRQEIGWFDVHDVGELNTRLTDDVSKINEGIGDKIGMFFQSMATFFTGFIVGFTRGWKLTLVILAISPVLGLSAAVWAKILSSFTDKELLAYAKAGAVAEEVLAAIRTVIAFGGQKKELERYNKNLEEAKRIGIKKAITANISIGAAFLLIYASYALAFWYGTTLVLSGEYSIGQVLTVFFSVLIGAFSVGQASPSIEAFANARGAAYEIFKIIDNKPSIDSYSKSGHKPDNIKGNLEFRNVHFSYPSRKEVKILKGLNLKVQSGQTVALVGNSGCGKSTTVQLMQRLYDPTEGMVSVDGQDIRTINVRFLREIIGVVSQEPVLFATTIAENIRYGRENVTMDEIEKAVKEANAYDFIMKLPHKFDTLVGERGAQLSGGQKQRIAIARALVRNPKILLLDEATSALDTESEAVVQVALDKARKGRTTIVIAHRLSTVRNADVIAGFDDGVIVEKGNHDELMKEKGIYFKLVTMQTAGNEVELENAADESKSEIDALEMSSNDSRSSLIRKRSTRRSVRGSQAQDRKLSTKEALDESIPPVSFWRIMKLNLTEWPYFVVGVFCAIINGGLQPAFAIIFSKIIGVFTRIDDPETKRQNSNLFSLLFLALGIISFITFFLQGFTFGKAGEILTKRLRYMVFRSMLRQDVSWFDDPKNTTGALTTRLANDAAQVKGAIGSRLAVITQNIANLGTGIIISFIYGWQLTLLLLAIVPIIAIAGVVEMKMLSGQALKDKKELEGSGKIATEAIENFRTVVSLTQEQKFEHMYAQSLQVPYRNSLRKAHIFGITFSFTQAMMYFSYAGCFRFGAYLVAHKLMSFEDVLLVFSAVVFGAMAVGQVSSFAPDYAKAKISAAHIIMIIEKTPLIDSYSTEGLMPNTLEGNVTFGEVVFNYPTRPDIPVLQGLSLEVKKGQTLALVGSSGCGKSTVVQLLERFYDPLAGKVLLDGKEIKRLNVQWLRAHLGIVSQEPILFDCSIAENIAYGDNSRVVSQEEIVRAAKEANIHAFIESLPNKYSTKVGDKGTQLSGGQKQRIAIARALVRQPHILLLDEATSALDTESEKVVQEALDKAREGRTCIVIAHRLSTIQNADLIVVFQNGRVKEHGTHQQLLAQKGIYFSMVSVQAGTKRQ
The membrane vesicle suspension was mixed with the ice-cold transport buffer, then the probe substrate solution was added. […] (for BCRP and MDR1). […] Reactions were quenched by the addition of 200 μL of ice-cold washing buffer and immediate filtration via glass fiber filters mounted to a 96-well plate (filter plate). The filters were washed (5×200 μL of ice-cold washing buffer), dried and the amount of substrate inside the filtered vesicles was determined by liquid scintillation counting.
Incubation with AMP provided background activity values for all data points.

The mark [2] stands for this setting: 50.00 μM, reference inhibitor, follow-up assay.
The mark [3] stands for this setting: 50.00 μM nominal, E217βG, Table 131.

In the case of `CO[C@H]1/C=C/O[C@@]2(C)Oc3c(C)c(O)c4c(O)c(c(/C=N/N5CCN(C)CC5)c(O)c4c3C2=O)NC(=O)/C(C)=C\C=C\[C@H](C)[C@H](O)[C@@H](C)[C@@H](O)[C@@H](C)[C@H](OC(C)=O)[C@@H]1C` [Rifampicin], the “Relative transporter specific accumulation” value on OATP1B3 (50.00 μM nominal, CCK-8, Table 120) is reported as 0.71 ± 0.29 % of control; on OATP1B3 (50.00 μM nominal, CCK-8, Table 132) it was 1.50 ± 0.24 % of control; on OATP1B3 (50.00 μM, reference inhibitor), 1.41 ± 0.25 % of control; at OATP1B3 (setting [2]) it was 0.54 ± 0.31 % of control; at OATP1B1 (50.00 μM nominal, E217βG, Table 119), 0.84 ± 0.23 % of control; on OATP1B1 (setting [3]), 1.12 ± 0.11 % of control. In addition, the “Relative transporter specific accumulation” value is listed as 0.51 ± 0.31 % of control on OATP1B1 (50.00 μM, reference inhibitor) and 0.86 ± 0.39 % of control at OATP1B1 (setting [2]). Moreover, the inhibition at 50 µM against OATP1B3 (human) and at OATP1B1 (human) was 99% throughout. This compound yielded an inhibition at 50 μM against OATP1B3 (human) of 99%. Besides, the “Relative inhibition” value on OATP1B1 (setting [3]) is on record as 99%.
As for `C[C@]12CC[C@H]3[C@@H](CCC4=CC(=O)CC[C@@]43C)[C@@H]1CC[C@@H]2O` [Testosterone, reference compound], the “CLint(HIH)” value in data set [1] (1 μM) is 41.8 µL/min/mg. This compound also came in with a half-life at 1 μM in data set [1] (human, human intestinal homogenate) of 33.2 min.
Regarding `C/C=C/C[C@@H](C)C(=O)[C@H]1C(=O)N[C@@H](C(C)C)C(=O)N(C)CC(=O)N(C)[C@@H](CC(C)C)C(=O)N[C@@H](C(C)C)C(=O)N(C)[C@@H](CC(C)C)C(=O)N[C@@H](C)C(=O)N[C@H](C)C(=O)N(C)[C@@H](CC(C)C)C(=O)N(C)[C@@H](CC(C)C)C(=O)N(C)[C@@H](C(C)C)C(=O)N1C` [Valspodar], the Relative inhibition at MDR1 worked out at 99%; at MDR1 (follow-up assay) it was 96%.
With `C/C=C/C[C@@H](C)C(=O)[C@H]1C(=O)N[C@@H](C(C)C)C(=O)N(C)CC(=O)N(C)[C@@H](CC(C)C)C(=O)N[C@@H](C(C)C)C(=O)N(C)[C@@H](CC(C)C)C(=O)N[C@@H](C)C(=O)N[C@H](C)C(=O)N(C)[C@@H](CC(C)C)C(=O)N(C)[C@@H](CC(C)C)C(=O)N(C)[C@@H](C(C)C)C(=O)N1C` [valspodar], the “Relative ATP-dependent transport” value at MDR1 was 0.18 ± 0.68 % of control.

Values taken from patent US20250108038A1 (priority 2023, published 2025).
